Source: PubChem BioAssay AID1745853 (National Center for Advancing Translational Sciences (NCATS), 2022)
The other results are listed elsewhere or left out. The main result of the screen is listed elsewhere. These columns were measured beside it and carry no call.

How the values were obtained:
Assay in all cases: Primary Screen for Target Class Profiling of Small Molecule Inhibitors of Methyltransferases
[1] = biological target: Glycine N-methyltransferase (Homo sapiens) (UniProt Q14749); details: purified enzyme, MTase-Glo SAH luminescence; measured here: GNMT inhibition; at 40 µM; stronger effect = lower value
Procedure, shortened: (§1)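 Each enzyme was assayed with SAM and its substrate. SAH formation detected by MTase-Glo luminescence; single-point 40 uM screen[…].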

[2] = biological target: Guanidinoacetate N-methyltransferase (Homo sapiens) (UniProt Q14353); details: purified enzyme, MTase-Glo SAH luminescence; measured here: GAMT inhibition; at 40 µM; stronger effect = lower value
Procedure, shortened: as §1

[3] = biological target: Histamine N-methyltransferase (Homo sapiens) (UniProt P50135); details: purified enzyme, MTase-Glo SAH luminescence; measured here: HNMT inhibition; at 40 µM; stronger effect = lower value
Procedure, shortened: as §1

[4] = biological target: Nicotinamide N-methyltransferase (Homo sapiens) (UniProt P40261); details: purified enzyme, MTase-Glo SAH luminescence; measured here: NNMT inhibition; at 40 µM; stronger effect = lower value
Procedure, shortened: as §1

[5] = biological target: Phenylethanolamine N-methyltransferase (Homo sapiens) (UniProt P11086); details: purified enzyme, MTase-Glo SAH luminescence; measured here: PNMT inhibition; at 40 µM; stronger effect = lower value
Procedure, shortened: as §1
% is set by controls: 0 for no effect and ±100 for the full control effect.

SMILES	activity change, negative = inhibition [1]	activity change, negative = inhibition [2]	activity change, negative = inhibition [3]	activity change, negative = inhibition [4]	activity change, negative = inhibition [5]
CCn1c(=O)n(CC)c2cc(S(=O)(=O)N3CCN(c4cccc(C)c4)C(C)C3)ccc21 (stereo not given)	3.39%	0%	0.592%	-2.17%	0.138%
COc1ccccc1CNC(=O)C1(C)Cn2nc(-c3ccccc3)cc2C(=O)N1Cc1ccc(Cl)cc1 (stereo not given)	-0.974%	3.3%	-0.104%	1.54%	-1.44%
CCc1cccc(N2C(=O)c3cc(-c4ccccc4)nn3CC2(C)C(=O)NCCCOC)c1 (stereo not given)	-3.21%	5.22%	-2.29%	-3.95%	-8.9%
CC1=C[C@H]2[C@@H](CC1=O)[C@H](C)C[C@H](O)[C@H]2C(C)C	-6.74%	-22.6%	2.59%	-25.3%	-8.9%
CC(C)NC(=O)c1ccc2c(=O)n(Cc3ccccc3)c3nn(CC(=O)c4ccccc4)c(=O)n3c2c1	2.64%	1.39%	5.92%	2.96%	6.06%
CCOC(=O)c1cc2n(n1)CC(C)(C(=O)NCc1ccccc1)N(Cc1ccccc1OC)C2=O (stereo not given)	-0.48%	7.67%	0.464%	-8.04%	-3.08%
COc1ccccc1CN1C(=O)c2cc3sccc3n2CC1(C)C(=O)NC1CCCCCCC1 (stereo not given)	-0.667%	0%	4.23%	1.56%	-1.62%
CC(C)CCNC(=O)c1ccc2c(c1)nc(Nc1n[nH]c3ccc(-c4ccccc4OC(F)(F)F)cc13)n2C1CCC(O)CC1 (stereo not given)	5.28%	-20%	4.03%	-48%	-6.17%
CCCn1c(=O)c2ccc(C(=O)NC3CCCCC3)cc2n2c(=O)n(Cc3cccc(OC)c3)nc12	5.03%	0%	9.53%	-0.224%	5.01%
C=CCCC(=O)N1c2cccc3c2[C@@H](C[C@H]1C(N)=O)CN(c1ccccc1)C3=O	-3.29%	-4.17%	-0.241%	-7.25%	-3.75%
C=C1/C(=C/C=C2\CCC[C@]3(C)[C@@H]([C@H](C)/C=C/C(=O)C4CC4)CC[C@@H]23)C[C@@H](O)C[C@@H]1O	-17.9%	-22.6%	0.24%	-30.9%	-8.5%
CCOc1ccc(C2c3cccn3-c3sc4c(c3CN2C(=O)Nc2cccc(C)c2)CCCC4)cc1 (stereo not given)	-0.287%	2.85%	7.65%	2.42%	9.48%
CCOC(=O)c1cc2n(n1)CC(C)(C(=O)NC1CCCC1)N(c1ccccc1OC)C2=O (stereo not given)	6.03%	0%	4.63%	6.94%	3.5%
CCOC(=O)c1cc2n(n1)CC(C)(C(=O)NCCC(C)C)N(c1ccc(C)c(C)c1)C2=O (stereo not given)	4.33%	1.73%	4.05%	11.7%	1.8%
COc1cc2c(cc1NS(=O)(=O)c1ccc3c(c1)n(C)c(=O)n3C)n(C)c(=O)n2C	-1.57%	0.161%	10.9%	-1.64%	2.21%
COc1ccc2c(c1)c(NC(C)=O)c1n2CC(C)(C(=O)NC2CCCC2)N(Cc2ccccc2)C1=O (stereo not given)	3.64%	1.4%	7.92%	10.4%	3.78%
OCCN(CCO)c1nc(N2CCCCC2)c2nc(N(CCO)CCO)nc(N3CCCCC3)c2n1	-14.5%	2.95%	-3.32%	-9.05%	2.49%
CC1(C(=O)N2CCC(c3ccccc3)CC2)CCc2cnc(Nc3ccncc3)nc21 (stereo not given)	-12.5%	-6.65%	-18.8%	-27.5%	-11.2%
O=C(NC1CC1)c1ccc2c(=O)nc3c(-c4ccc(Cl)cc4)n[nH]n3c2c1	-0.514%	0.483%	8.36%	10.8%	4.48%
C=Cc1ccc(Cn2nc3n(CC(C)C)c(=O)c4ccccc4n3c2=O)cc1	0.372%	0%	4.6%	-4.26%	0.674%

SMILES	activity change, negative = inhibition [1]	activity change, negative = inhibition [2]	activity change, negative = inhibition [3]	activity change, negative = inhibition [4]	activity change, negative = inhibition [5]
Cc1ccc(C)c(CSc2nnc3n(CC(C)C)c(=O)c4ccc(C(=O)NC(C)C)cc4n23)c1	-0.118%	-0.784%	5.14%	-3.91%	-2.29%
COc1cccc(CNS(=O)(=O)c2cc3[nH]c(=O)[nH]c3cc2C)c1	14.5%	4.48%	12.3%	2.14%	6.68%
CC(C)(C)OC(=O)N1CCC(OCc2nc(-c3ccncc3)no2)CC1	3%	0.523%	1.66%	-12.8%	-5.5%
CN1C(=O)c2cc(C(=O)NC3CCCCCC3)nn2CC1(C)C(=O)NC1CCCC1 (stereo not given)	2.54%	1.04%	-0.427%	2.37%	1.83%
CCCn1c(=O)c2ccccc2n2c(=O)n(CC(=O)Nc3cc(OC)cc(OC)c3)nc12	5.43%	0.837%	10.2%	0.556%	2.89%
CC(C)NC(=O)c1ccc2c(=O)n(C(C)C)c3nn(CC(=O)N(C)c4ccccc4)c(=O)n3c2c1	6.39%	1.98%	2.45%	0.441%	5.45%
COCc1nc(NCCCN2CCOCC2)cc(C2CC(N)C2)n1 (stereo not given)	-2.26%	-3.72%	-2.75%	-7.11%	-5.59%
Cn1cnc([N+](=O)[O-])c1Sc1ncnc2nc[nH]c12	3.91%	3.09%	10.9%	-3.72%	6.03%
N#Cc1cccc(CN2CC[C@H](c3nc4ccccc4o3)C2)c1	-6.9%	-2.6%	-3.09%	-3.86%	-8.47%
Cn1cc(CCn2cnc(-c3cnn(C)c3)c2-c2ccc(C#N)cc2)cn1	5.79%	4.56%	-8.03%	-6.79%	2.48%
COC1C(=O)N(CC2CC2)C12CCN(S(=O)(=O)c1ccc3c(c1)OCCO3)CC2 (stereo not given)	-1.65%	-1.76%	-1.2%	-38.4%	-1.33%
O=C(CCc1nnc2n(Cc3ccccc3)c(=O)c3ccccc3n12)N1CCN(c2cccc(Cl)c2)CC1	-4.83%	2.44%	6.97%	1.86%	2.29%
COc1ccc(-c2nc3cc(C(=O)NCC(C)C)ccc3o2)cn1	-5.86%	-8.8%	-3.4%	-11.7%	3.86%
c1cc(-c2nc(C3CCOC3)nn2C2CCCCC2)co1 (stereo not given)	-3.8%	-3.58%	-0.954%	-7.8%	-10%
CC(C)N1C(=O)c2cc3occc3n2CC1(C)C(=O)NC1CCCCCCC1 (stereo not given)	-7%	1.57%	-3.47%	-4.96%	-5.24%
CC(C)C1=NOC2(CCCN(C(=O)c3ccccn3)C2)C1 (stereo not given)	1.12%	1.32%	1.96%	0.458%	0.703%
CCc1ccc(CNC(=O)Cn2ccc3cc(S(=O)(=O)N4CCC(C)CC4)ccc32)cc1	-0.486%	3.62%	-1.55%	-0.674%	0.518%
COC(=O)c1cc2n(n1)CC(C)(C(=O)NC1CCCCCC1)N(c1ccccc1C)C2=O (stereo not given)	-3.33%	-0.114%	-4.31%	-16%	-7.57%
Cc1ccc(-c2cc(C(=O)Nc3ccc4c(c3)C(=O)N(C)C3=NCCN34)c3ccccc3n2)cc1C	-9.51%	-3.77%	-5.53%	-7.13%	-6.98%
CCc1cccc(NC(=O)Cn2nc3n(C)c(=O)c4ccc(C(=O)NC5CCCCC5)cc4n3c2=O)c1	3.06%	6.29%	5.3%	2.16%	0.122%

SMILES	activity change, negative = inhibition [1]	activity change, negative = inhibition [2]	activity change, negative = inhibition [3]	activity change, negative = inhibition [4]	activity change, negative = inhibition [5]
O=C(c1cnc2c(c1)CCCC2)N1CCCn2nc(CO)cc2C1	-6.04%	-4.42%	-4.4%	-6.11%	-4.98%
COc1cccc(CN2C(=O)c3cc(-c4ccccc4)nn3CC2(C)C(=O)NCc2ccccc2)c1OC (stereo not given)	-0.765%	0.524%	-0.823%	-6.92%	-2.96%
C=C1C[C@@]23CC[C@H]4[C@@](C)(CCC[C@@]4(C)C(=O)OC4OC(CO)C(O)C(O)C4O)[C@@H]2CC[C@]1(OC1OC(CO)C(O)C(O)C1OC1OC(CO)C(O)C(O)C1O)C3 (stereo not given in full)	-5.98%	1.15%	-2%	-9.94%	2.04%
CCn1c(=O)sc2cc(NS(=O)(=O)c3ccc4c(c3)n(C)c(=O)n4C)ccc21	1.46%	0%	8.04%	-2.68%	2.93%
O=C(NC1CCCCCC1)c1nnn2cc(-c3ccccc3)[nH]c(=O)c12	-27.8%	-4.61%	-32.1%	-20.2%	9.28%
CN(Cc1cccc(C(F)(F)F)c1)Cc1nc(-c2ccccc2)no1	-1.87%	4.33%	4.49%	-1.39%	-10.6%
Cc1nnc([C@H]2CCN(Cc3ncc[nH]3)C2)o1	-0.624%	-0.855%	1.11%	-0.993%	-2.29%
CN(C(=O)Cn1c(=O)oc2cc(S(=O)(=O)N3CCCC3)ccc21)c1ccc(Br)cc1	14.8%	0%	12.7%	-0.758%	4.99%
CCOC(=O)[C@H]1C[C@]2(CCCCNC2=O)N(C(=O)c2cccc(OC)c2)[C@H]1c1ccco1	-1.24%	1.66%	2.08%	-2.49%	-4.51%
CN(C)C(=O)/N=N/C(=O)N(C)C	-47.1%	5.58%	0.603%	-3.59%	4.93%
Cc1ccccc1CN1C(=O)c2cc(C3CC3)nn2CC1(C)C(=O)NC1CCCCCC1 (stereo not given)	-3.53%	1.18%	-1.66%	-16.3%	1.17%
C=C1C(=O)O[C@@H]2[C@H]1CC(=O)[C@H](C)[C@@](O)(C(=O)/C=C/C)[C@H]2OC(=O)C(C)CC (stereo not given in full)	0%	7.15%	0.459%	-3.6%	4.55%
Cc1c(C(=O)N(C)Cc2cc(-c3cccnc3)no2)oc2c(F)cccc12	-17.3%	-2.21%	-1.89%	-12.3%	-6.18%
CC1(C(=O)NC2CCCCCC2)Cn2c(c(-n3cccc3)c3cc(F)ccc32)C(=O)N1Cc1ccco1 (stereo not given)	-14.4%	3.19%	-9.55%	-17.2%	-5.49%
CCOC(=O)Cc1ccc(NC(=O)N2CCn3cccc3C2C)cc1 (stereo not given)	-7.74%	0.679%	-4.09%	-11.5%	-6.36%
COc1cccc(N2C(=O)NC(=NC3CCCCC3)C23CCCN([S+](=O)([O-])c2cccs2)C3)c1 (stereo not given)	-10.1%	-9.63%	-6.54%	-27.6%	-22.7%
COc1ccc(-c2ncccc2CNS(=O)(=O)c2ccc(C#N)cc2)cc1	4.4%	1.28%	3.5%	1.43%	3.08%
C=CCn1c(=O)c2ccc(C(=O)NC(C)C)cc2n2c(=O)n(CC(=O)NC3CCCC3)nc12	-0.214%	1.13%	2.74%	-8.52%	1.42%
O=C1CCCCC(Cc2cccnc2)(C(=O)NCC2CC2)N1 (stereo not given)	-0.435%	-1.31%	1.3%	-0.853%	-2.87%
